Reference: PubChem BioAssay AID463173 (ICCB-Longwood Screening Facility, Harvard Medical School, 2010)
Among all 52,000 compounds or so, about 4,300 (8.3%) were called active. Cut-off read from the data, not from the text of the source: active = survival mostly below about 52% (no sharp cut-off); inactive = mostly above about 56%. This is one part of the list.

tested on: DeltatarO mutant; assay: growth inhibition of S. aureus wild type versus tarO mutant, primary screen, teichoic acid synthesis inhibitors, RN4220, OD600 (AID 463173); settings: OD600, 18 h, stronger effect = lower value, screened at 18.75 µg/mL (by protocol)

| Compound | survival |
| --- | --- |
| Cc1ccc(OCC(=O)Nc2cc(-c3cccc(C)c3)nn2-c2ccccc2)cc1 | inactive: 96% |
| CCOc1ccccc1C(=O)Nc1cc2c(cc1N1CCOCC1)n(C)c(=O)n2C | inactive: 77% |
| Cc1ccc(CCNC(=O)c2ccc3c(c2)c(C)c(C)n3Cc2ccccc2)cc1 | inactive: 99% |
| CC1CCCN(c2ccc(C(=O)NCc3ccccc3)cn2)C1 (stereo unspecified) | inactive: 85% |
| COc1ccc(-n2c(=O)c3sc4ccccc4c3n(CC(=O)NCc3ccccc3)c2=O)cc1 | inactive: 104% |
| CCOc1ccc2[nH]c(=O)c(CN(CC3CCCO3)C(=O)N(CC)CC)cc2c1 (stereo unspecified) | inactive: 98% |
| Cc1ccccc1CNC(=O)c1ccc(CS(=O)Cc2ccc(Cl)cc2)o1 (stereo unspecified) | inactive: 79% |
| Cc1ccc2nc(N(Cc3cccnc3)C(=O)c3cccs3)sc2c1 | inactive: 71% |
| CCCn1c(CCC(=O)Nc2cccc(CC)c2)nc2cccnc21 | inactive: 69% |
| CCOc1ccc(N2CC(c3nc4ccccc4n3Cc3cccc(C)c3)CC2=O)cc1 (stereo unspecified) | active: 42% |
| Cc1ccc(NC(=O)C(=O)NCCCN2CCOCC2)cc1C | inactive: 91% |
| Cc1cccc(NC(=O)C2(C)Cc3ccccc3C(=O)O2)c1 (stereo unspecified) | inactive: 104% |
| CC(=O)Nc1ccc2nc(SCCOc3ccccc3)sc2c1 | inactive: 85% |
| Cc1c(CNC2CCCCCC2)c(C(=O)O)c(C)n1Cc1ccc(F)cc1 | inactive: 81% |
| COc1cc(C)c2c(=O)c(-c3nc(C)cs3)coc2c1 | inactive: 77% |
| CCCSc1nnc2n(-c3ccc(OC)cc3)c(=O)c3c4c(sc3n12)COC(C(C)C)C4 (stereo unspecified) | inactive: 57% |
| CC(C)CC(C(=O)NCCc1ccccc1)N1Cc2ccccc2C1=O (stereo unspecified) | inactive: 88% |
| CCc1ccc(NC(=O)CCCn2nc(C)c3c(C)n(-c4ccccc4)nc3c2=O)cc1 | inactive: 81% |
| Cc1nn(C(C)(C)C)c(OC(=O)c2cccc(F)c2)c1Sc1ccccc1 | active: 24% |
| CCOc1ccc(CNC(=O)C2CCN(Cc3cc4ccccc4n3Cc3ccccc3C)CC2)cc1 | inactive: 67% |
| COc1ccccc1CNC(=O)c1cc2ccc3ccc(C)[nH]c3c2n1 | inactive: 74% |
| Cc1ccccc1CSCCNC(=O)CN(c1ccccc1)S(=O)(=O)N(C)C | inactive: 52% |
| CCN1CCc2c(sc(-n3cccc3)c2C(C)NC(=O)Nc2ccccc2C)C1 (stereo unspecified) | inactive: 87% |

| Compound | survival |
| --- | --- |
| Cn1c(CNC(=O)c2ccccc2)n[nH]c1=S | inactive: 76% |
| C=CCn1cc(/C=C(\C#N)C(=O)NC2CCCCC2)c2ccccc21 | inactive: 83% |
| CCCNc1c2c(nc3ccccc13)CC(C)(C)CC2=O | inactive: 66% |
| CCn1nnc2cc(C(=O)Nc3cccc(C)c3C)ccc21 | inactive: 72% |
| Cc1ccc(C)c(N2CCN(S(=O)(=O)c3csc(C(N)=O)c3)CC2)c1 | inactive: 72% |
| COc1ccc(NC(=O)C2CCC(CNS(=O)(=O)c3cccs3)CC2)cc1OC (stereo unspecified) | inactive: 112% |
| Clc1ccccc1-c1nnc(-c2ccccc2CNc2ccccc2)o1 | inactive: 74% |
| COc1ccc(Cc2c(C)nn(-c3nc(C)c(C(=O)Nc4ccc(C)cc4C)s3)c2C)cc1 | inactive: 69% |
| COc1cc(C2c3c(-c4ccccc4O)n[nH]c3C(=O)N2CCO)ccc1OCC(C)C (stereo unspecified) | inactive: 99% |
| Cc1cccc(Oc2ccc(NC(=O)CCC(=O)OCC(=O)c3ccc(Br)cc3)cc2)c1C | inactive: 68% |
| Cc1ccc(C)c(CSc2cn(CCNC(=O)c3ccccc3F)c3ccccc23)c1 | active: 35% |
| COc1cccc(C(C(=O)NCc2ccccc2)N(C(=O)Cn2nnc3ccccc32)c2cccc(C(C)=O)c2)c1 (stereo unspecified) | active: 44% |
| O=C(O)C1CSC2(CCN(Cc3ccccc3)CC2)N1 (stereo unspecified) | inactive: 99% |
| Cn1c(SCCC(=O)O)nnc1-c1ccncc1 | inactive: 95% |
| O=C(Nc1ccccc1)C1CCCN1C(=O)NCc1ccccc1 (stereo unspecified) | inactive: 104% |
| CCn1cc(C(=O)NCc2ccc(F)cc2)c(=O)c2cc(S(=O)(=O)N(C)C)ccc21 | inactive: 81% |
| COc1cc(OC)c(NC(=O)CCNS(=O)(=O)c2ccc3c(c2)oc(=O)n3C)cc1Cl | inactive: 83% |
| CC(=O)N1CCCc2cc(S(=O)(=O)N(Cc3ccccc3)C(C)C)ccc21 | inactive: 80% |
| COc1ccc(-n2c(CCC(=O)O)ccc2-c2ccccc2)c(OC)c1 | active: 47% |
| COC(=O)COc1cc(C)nc(SC)n1 | inactive: 62% |
| CCCCc1ccc(NC(=O)CSc2nnc3[nH]c(=O)cc(C)n23)cc1 | inactive: 95% |
| CCCN1CCN(CCCNC(=O)c2ccc(CS(=O)c3ccc(OC)cc3)o2)CC1 (stereo unspecified) | inactive: 97% |
| CCN(CC)CCNC(=O)c1cc2c(=O)oc3ccc(C)cc3c2s1 | inactive: 90% |

| Compound | survival |
| --- | --- |
| COc1ccc(Cc2nnc(SCC(=O)N3CCCC3)o2)cc1 | inactive: 83% |
| Cc1ccc(NC(=O)Cn2nnc3sc4c(c3c2=O)CCCC4)c(C)c1 | inactive: 86% |
| O=C(/C=C/c1ccc(Cl)cc1)Nc1nc(-c2cccs2)ns1 | inactive: 61% |
| Cc1cc(C)c(Cn2c3ccccc3c3cnn(CC(=O)NCC(C)c4ccccc4)c(=O)c32)c(C)c1 (stereo unspecified) | inactive: 77% |
| COc1cc2c(cc1OC)C(COc1ccccc1OC)N(C(=O)c1ccccc1OC)CC2 (stereo unspecified) | inactive: 80% |
| O=S(=O)(c1ccccc1)N1CCN(S(=O)(=O)N2CCCCC2)CC1 | inactive: 93% |
| CCc1cccc(NC(=O)CCS(=O)(=O)c2cc3c4c(c2)CCN4C(=O)CC3)c1 | inactive: 76% |
| Cc1cccc(C(=O)Nc2cccc(OCc3cc(=O)n4ccccc4n3)c2)c1 | inactive: 96% |
| COc1cc2c(=O)c(S(=O)(=O)c3ccccc3)cn(CC(=O)Nc3ccccc3C)c2cc1OC | inactive: 82% |
| COc1cc(OC)c(NC(=O)c2c3c(nc4ccccc24)C(=O)N(C2CCCCC2)C3)cc1Cl | inactive: 60% |
| CCN1C(=O)C2C(c3cccs3)NC(C)(C(=O)OC)C2C1=O (stereo unspecified) | inactive: 82% |
| Cc1cc(C)c(NC(=O)Cn2c(=O)n(Cc3ccccc3)c(=O)c3c(C)c(C(=O)N(C)C)sc32)c(C)c1 | inactive: 112% |
| CCC1CCCCN1Cc1cn2c(-c3ccc(Br)cc3)nnc2s1 (stereo unspecified) | inactive: 80% |
| CCS(=O)(=O)N1CCc2cc(C(=O)Nc3ccc(OC)cc3OC)ccc21 | active: 44% |
| CC(=O)c1cccc(NC(=O)c2nc(-c3ccccc3)n(-c3cccc(C)c3)n2)c1 | inactive: 64% |
| CCOc1ccccc1NC(=O)CN1CCN(S(=O)(=O)c2ccc(Br)cc2)CC1 | inactive: 92% |
| Cc1ccc(CNC(=O)CSC2=Nc3ccccc3C3=NC(C)C(=O)N23)cc1 (stereo unspecified) | inactive: 71% |
| Cc1ccc2occ(CC(=O)N3CCN(c4cccc(Cl)c4)CC3)c2c1 | inactive: 92% |
| CCCN1CCN(CCCNC(=O)Cn2c(-c3cccs3)cc3cc(Cl)ccc32)CC1 | inactive: 80% |
| Cc1cc(Cl)ccc1NC(=O)c1cc2ccccn2n1 | inactive: 69% |
| NC(=O)c1c(NC(=O)CN(C(=O)c2cccs2)C2CCCC2)sc2c1CCCC2 | inactive: 78% |
| CCOC(=O)c1ccccc1NC(=O)c1nn(C)c2c1COc1ccccc1-2 | inactive: 59% |
| CC(=O)Nc1cccc(NC(=O)C(=O)NCCc2csc3nc(-c4ccccc4F)nn23)c1 | inactive: 64% |

| Compound | survival |
| --- | --- |
| COc1ccccc1N1CCN(S(=O)(=O)c2ccc(-c3cnc(C4CC4)o3)cc2)CC1 | inactive: 113% |
| CC(C)CCNC(=O)c1cn(C)c2ccc(S(=O)(=O)N3CCOCC3)cc2c1=O | inactive: 77% |
| Cc1ccc(OCc2nnc(-c3ccccc3)o2)cc1 | inactive: 54% |
| Cc1ccc(NC(=O)C2CCCN(S(=O)(=O)c3ccc4c(c3)CCCC(=O)N4)C2)cc1Cl (stereo unspecified) | inactive: 88% |
| Cc1ccc(Cl)cc1N1CCN(C(=O)C2CCCN(Cc3nc(-c4cccc(Cl)c4)oc3C)C2)CC1 (stereo unspecified) | inactive: 66% |
| CCCCNc1nc2c(c(=O)n(Cc3ccccc3)c(=O)n2C)n1C | inactive: 66% |
| COc1ccc(N(C)C(=O)c2cc3c(s2)-c2ccccc2OC3)cc1 | active: -2% |
| COc1cc(OC)c(OC)cc1/C=C/c1nc2ccccc2c(=O)n1-c1ccc(Br)c(C)c1 | inactive: 78% |
| Cc1cc(C(=O)Nc2cccc(C)c2C)c2c(C)nn(-c3cccc(F)c3)c2n1 | inactive: 94% |
| O=C(c1ccc(Cl)cc1)c1cn(Cc2ccccc2)c2cc3c(cc2c1=O)OCCO3 | inactive: 76% |
| Cc1ccc(NC(=O)Cn2c(=O)ccc3cc(S(=O)(=O)N4CCCC4)ccc32)cc1N(C)C | active: 32% |
| O=C(NCc1ccc(Cl)cc1)c1ccc2c(c1)N(Cc1ccccc1F)C(=O)c1ccccc1S2=O (stereo unspecified) | inactive: 114% |
| CCc1ccc(CNC(=O)c2ccc(CS(=O)(=O)Cc3cccc(C)c3)o2)cc1 | inactive: 80% |
| COc1ccc(CCNC(=O)C(=O)NCC(c2cccnc2)N2CCN(c3ccccc3)CC2)cc1 (stereo unspecified) | inactive: 100% |
| CCC(C(=O)NCCc1ccc(Cl)cc1)n1ccc2cc(S(=O)(=O)N3CCCCC3)ccc21 (stereo unspecified) | inactive: 103% |
| COc1ccc(C(=O)N2CCN(c3nc4c(C)c(Cl)ccc4s3)CC2)c(OC)c1 | inactive: 98% |
| CCOc1ccc(NC(=O)CN(C)S(=O)(=O)c2ccc3[nH]c4c(c3c2)CCCC4)cc1 | inactive: 65% |
| Cc1cc(-c2ccc(S(=O)(=O)Nc3cccc(Cl)c3C)cc2)on1 | inactive: 94% |
| CC(C)CCNC(=O)c1ccc2c(c1)nc1n2CCCCC1 | inactive: 86% |
| CCCC(=O)Nc1ccc2nc(SCc3ccc(C)cc3)sc2c1 | inactive: 107% |
| COCCNc1ccc(-c2nc(-c3ccccn3)no2)cc1[N+](=O)[O-] | active: 43% |
| COc1ccc(C)cc1NC(=O)Cc1c(C(=O)O)c(C)cn1C | inactive: 68% |
